For 29 compounds, activity change, negative = inhibition results are on record in PubChem BioAssay AID1745853 (National Center for Advancing Translational Sciences (NCATS), 2022).

The list shows a part of the results. These are further read-outs of the screen, such as a control signal, another cell line or another target. No call is given for them.

Holding throughout (assay): Primary Screen for Target Class Profiling of Small Molecule Inhibitors of Methyltransferases
Assay [1] deals with Glycine N-methyltransferase (Homo sapiens) (UniProt Q14749). To be noted: purified enzyme, MTase-Glo SAH luminescence; measured here: GNMT inhibition; at 40 µM; stronger effect = lower value. The procedure, abridged:
(§1)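 Each enzyme was assayed with SAM and its substrate. SAH formation detected by MTase-Glo luminescence; single-point 40 uM screen[…].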

Assay [2] deals with Guanidinoacetate N-methyltransferase (Homo sapiens) (UniProt Q14353). To be noted: purified enzyme, MTase-Glo SAH luminescence; measured here: GAMT inhibition; at 40 µM; stronger effect = lower value. The procedure, abridged:
as §1

Assay [3] concerns the target Histamine N-methyltransferase (Homo sapiens) (UniProt P50135). Particulars: purified enzyme, MTase-Glo SAH luminescence; measured here: HNMT inhibition; at 40 µM; stronger effect = lower value. Summed up:
as §1

Assay [4] addresses Nicotinamide N-methyltransferase (Homo sapiens) (UniProt P40261). Particulars: purified enzyme, MTase-Glo SAH luminescence; measured here: NNMT inhibition; at 40 µM; stronger effect = lower value. The procedure, abridged:
as §1

The target in assay [5] is Phenylethanolamine N-methyltransferase (Homo sapiens) (UniProt P11086). Particulars: purified enzyme, MTase-Glo SAH luminescence; measured here: PNMT inhibition; at 40 µM; stronger effect = lower value. The procedure, abridged:
as §1
% is scaled to controls: 0 for no effect and ±100 for the full control effect.

With `Cn1c(=O)c2ccc(C(=O)NC3CCCCC3)cc2n2c(SCC(N)=O)nnc12`, the activity change, negative = inhibition in assay [1] is -0.487%; in assay [2], 2.4%; in assay [3], 6.55%; in assay [4], 6.76%; in assay [5] it was 6.74%.
The corresponding values for `CCCn1c(=O)c2ccc(C(=O)NC(C)C)cc2n2c(=O)n(CC(=O)Nc3ccc(CC)cc3)nc12` are 1.76%, 0.316%, 2.49%, 2.52% and 3.89%.
Take `COc1ccc(C2c3cccn3-c3sc4c(c3CN2C(=O)NCc2cccc(OC)c2)CCCC4)cc1` (stereo not given): the activity change, negative = inhibition in assay [1] is -6.56%; in assay [2], 3.79%; in assay [3], 3.38%; in assay [4], -2.21%; in assay [5], -0.086%.
On to `CCOC(=O)c1cc2n(n1)CC(C)(C(=O)NC1CCC(C)CC1)N(Cc1cccc(OC)c1)C2=O` (stereo not given), for which the activity change, negative = inhibition in assay [1] was 1.7%; in assay [2], 0.759%; in assay [3], 4.09%; in assay [4], -18.3%; in assay [5] it was 0.336%.
In the same order, the values of `CCC(C)NC(=O)c1ccc2c(=O)n(C)c3nnc(SCc4ccc(N5CCCC5=O)cc4)n3c2c1` (stereo not given) are 3.96%, 7.44%, 7.3%, 3.07% and 1.08%.
Turning to `CC(C)NC(=O)COc1cccc(-c2nc(Nc3ccc4[nH]ncc4c3)c3ccccc3n2)c1`, the activity change, negative = inhibition is -3.11% in assay [1]; 18.6% in assay [2]; 4.88% in assay [3]; 2.88% in assay [4]; 3.91% in assay [5].
For the compound `CC1CCCCC1NC(=O)C1(C)Cn2c(cc3sccc32)C(=O)N1CCc1ccccc1` (stereo not given), the activity change, negative = inhibition in assay [1] is -0.088%; in assay [2] it was 7.64%; in assay [3] it was -0.296%; in assay [4] it was 2.01%; in assay [5] it was -3.52%.
The corresponding values for `N[C@@H](CC(=O)O)C(=O)O` are -5.76%, 6.4%, 0.387%, -5.67% and 5.01%.
Take `c1ccc2cc(-c3nc(C4CCOC4)no3)ncc2c1` (stereo not given): the activity change, negative = inhibition in assay [1] is -3.46%; in assay [2], 2.26%; in assay [3], -0.985%; in assay [4], -8.63%; in assay [5] it was 11.1%.
The corresponding values for `NC(=O)NCc1cn(C2CCN(C(=O)C3CCCCCC3)CC2)nn1` are -0.923%, 1.8%, 1.07%, 1.69% and 1.03%.
In the same order, the values of `Cc1ccc(C2c3cccn3-c3sc4c(c3CN2C(=O)Nc2ccccc2)CCCC4)cc1` (stereo not given) are -5.67%, -5.98%, 1.93%, -9.85% and 0.721%.
In the same order, the values of `CN1C(=O)c2cc(C(=O)NCc3cccnc3)nn2CC1(C)C(=O)NC1CCCC1` (stereo not given) are 11%, 2.15%, 7.89%, 0.017% and 5.63%.
Turning to `COc1ccccc1NC(=O)Cn1nc2n(CC(C)C)c(=O)c3ccccc3n2c1=O`, the activity change, negative = inhibition in assay [1] was -0.975%; in assay [2], 0%; in assay [3] it was 5.74%; in assay [4], -3.29%; in assay [5] it was 0.826%.
The corresponding values for `CCCC1c2ccc(C)n2CCN1C(=O)Nc1cccc2c1CCCC2` (stereo not given) are -2.25%, 4.96%, -6.23%, 0.401% and -4.32%.
The corresponding values for `COc1ccc(NS(=O)(=O)c2cc3c(cc2Cl)n(C)c(=O)n3C)cc1` are -6.41%, -0.291%, -4.41%, -0.472% and -4.02%.
For the compound `O=C(Nc1ccc([C@@H](O)[C@H]2COCC(=O)N2Cc2ccccc2F)cc1)c1ccc2c(c1)OCO2`, the activity change, negative = inhibition was -4.87% in assay [1]; 1.34% in assay [2]; -0.799% in assay [3]; -1.53% in assay [4]; -12.3% in assay [5].
The corresponding values for `Fc1ccccc1Nc1ccnc(N2CC3CCC(C2)N3CC(F)(F)F)n1` are -4.63%, -1.84%, -0.429%, -12.6% and -1.78%.
As for `CCN(C(=O)Cn1c(=O)oc2cc(S(=O)(=O)N3CCCCC3)ccc21)c1ccccc1`, the activity change, negative = inhibition is -2.4% in assay [1]; 3.15% in assay [2]; -0.135% in assay [3]; 1.46% in assay [4]; -3.26% in assay [5].
In the same order, the values of `c1ccc(CN(Cc2ccoc2)[C@@H]2C[C@@H]3CO[C@H](c4ccccc4)C[C@@H]3C2)cc1` are -2.7%, 0.444%, 1.51%, -7.31% and -4.09%.
The corresponding values for `C/C=C(\C)C(=O)OC[C@H]1O[C@@H](O[C@H]2[C@@H](O[C@H]3O[C@H](CO)[C@@H](O)[C@H](O)[C@H]3O[C@@H]3O[C@H](CO)[C@@H](O)[C@H](O)[C@H]3O)O[C@H](COC(=O)/C(C)=C/C)[C@@H](O)[C@@H]2O)[C@H](O)[C@@H](O)[C@@H]1O` are 1.52%, 2.38%, 5.48%, -6.89% and 2.37%.
The corresponding values for `CC(=O)N1CCc2nn(CC(=O)N3CCN(c4ccccc4)CC3)c(=O)cc2C1` are -9.13%, -11.8%, -5.67%, -17.9% and -27.6%.
Take `CCCn1c(=O)c2ccc(C(=O)NC(C)C)cc2n2c(SCC(=O)NC(C)C)nnc12`: the activity change, negative = inhibition in assay [1] came out at 1.24%; in assay [2], 0%; in assay [3], 4.79%; in assay [4], 1.61%; in assay [5], 3.04%.
Consider `C[C@H]1C(=O)N2c3ccccc3[C@@]3(O)C[C@@H]4C(=O)N[C@](C)(c5nc6ccccc6c(=O)n54)N1[C@@H]23`, for which the activity change, negative = inhibition in assay [1] is -6.61%; in assay [2], -0.506%; in assay [3], 8.46%; in assay [4], -23.7%; in assay [5], -10.6%.
For the compound `O=S(=O)(c1cc(F)ccc1F)N1CCCC1c1nncn1Cc1ccncc1` (stereo not given), the activity change, negative = inhibition in assay [1] is -4.61%; in assay [2] it was -2.83%; in assay [3] it was -1.56%; in assay [4], -6.93%; in assay [5], -5.28%.
In the same order, the values of `COc1ccc(CCC(=O)c2c(O)cc(O)cc2O[C@@H]2O[C@H](CO)[C@@H](O)[C@H](O)[C@H]2O)cc1` are -3.73%, -4.22%, 2.81%, -14% and -9.85%.
The corresponding values for `O=C(CCCc1ccc(F)cc1)N[C@@H]1CCOC[C@H]1Oc1ccccn1` are 0.341%, -0.325%, -0.268%, 1.95% and -0.907%.
In the same order, the values of `CCOC(=O)C(Cc1c[nH]c2ccccc12)NC(=O)c1ccc(Br)cc1` (stereo not given) are -6.46%, 2.53%, -3.85%, -9.34% and -4.07%.
For the compound `Cc1ccc(NC(=O)CN(C)S(=O)(=O)c2ccc3[nH]c4c(c3c2)CCCC4)c(C)c1`, the activity change, negative = inhibition in assay [1] is -2.28%; in assay [2], 4.45%; in assay [3] it was 0.8%; in assay [4], -2.13%; in assay [5], -1.12%.
The corresponding values for `CS(=O)(=O)c1ccc([C@@H](O)[C@@H](CF)NC(=O)C(Cl)Cl)cc1` are 2.87%, 4.54%, 7.61%, -9.25% and 2.53%.
